This list was built around the results that the source calls inconclusive (neither active nor inactive); the mix of calls is not that of the screen. For some assays here: Potencies of inconclusive entries are left out as doubtful fits. Active and inactive are the calls of the source. The call rests on the fitted dose curve; in most records, active means well fitted curve in the direction sought with a large enough effect; inconclusive means small, poorly fitted or top-dose-only effect, or another doubt; inactive means no such curve, though single readings can be large; an effect the other way counts as inactive or inconclusive.
Assays:
[1] = target: Rap guanine nucleotide exchange factor 3 (Homo sapiens) (UniProt O95398); assay: Confirmatory qHTS for antagonist of cAMP-regulated guanine nucleotide exchange factor 3 (EPAC1) (AID 1645880); conditions: EPAC1 Rap1B-BODIPY-GDP exchange, fluorescence; activity, negative = inhibition: at 115 µM (top of the series); further: nearly all actives have a fitted effect of over 55% in size;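 on activity, negative = inhibition: plate controls were DMSO only for no effect and full effect of the ATA control for full effect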
Chain of UniProt O95398 (O95398 whole entry, looked up): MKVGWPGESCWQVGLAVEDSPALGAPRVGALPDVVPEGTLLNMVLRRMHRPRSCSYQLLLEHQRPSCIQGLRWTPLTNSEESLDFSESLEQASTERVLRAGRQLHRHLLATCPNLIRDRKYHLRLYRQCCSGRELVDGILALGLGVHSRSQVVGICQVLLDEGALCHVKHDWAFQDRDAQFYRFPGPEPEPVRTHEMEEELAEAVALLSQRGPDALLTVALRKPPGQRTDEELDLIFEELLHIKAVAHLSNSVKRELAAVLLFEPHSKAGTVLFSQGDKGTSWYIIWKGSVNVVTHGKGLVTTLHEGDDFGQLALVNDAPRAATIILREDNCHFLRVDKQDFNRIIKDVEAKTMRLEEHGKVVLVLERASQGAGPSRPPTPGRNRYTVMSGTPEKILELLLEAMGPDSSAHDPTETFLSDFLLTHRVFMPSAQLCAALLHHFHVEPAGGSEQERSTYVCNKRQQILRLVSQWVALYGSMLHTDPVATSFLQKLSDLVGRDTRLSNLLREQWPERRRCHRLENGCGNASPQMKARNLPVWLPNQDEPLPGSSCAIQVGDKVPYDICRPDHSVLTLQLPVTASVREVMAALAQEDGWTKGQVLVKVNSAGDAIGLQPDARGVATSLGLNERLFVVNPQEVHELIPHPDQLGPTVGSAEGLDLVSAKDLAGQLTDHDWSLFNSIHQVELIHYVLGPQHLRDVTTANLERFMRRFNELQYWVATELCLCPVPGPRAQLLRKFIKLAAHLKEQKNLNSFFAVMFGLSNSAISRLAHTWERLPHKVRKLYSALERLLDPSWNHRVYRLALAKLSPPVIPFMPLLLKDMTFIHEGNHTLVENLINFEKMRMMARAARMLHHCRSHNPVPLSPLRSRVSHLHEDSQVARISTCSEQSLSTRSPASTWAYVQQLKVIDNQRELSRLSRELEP
Summary of the method: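 Nucleotide exchange uses 100 nM EPAC1, 250 nM RAP1B-BODIPY-GDP and 50 uM GDP, with compounds in a concentration-titration series. After 5 min at room temperature, fluorescence (480 nm ex/540 nm em) is read every 5 min for 30 min. Data are normalized to control ATA and DMSO.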

[2] = target: Rap guanine nucleotide exchange factor 3 (Homo sapiens) (UniProt O95398); assay: Confirmatory qHTS for agonist of cAMP-regulated guanine nucleotide exchange factor 3 (EPAC1) (AID 1645881); conditions: EPAC1 Rap1B BODIPY-GDP exchange fluorescence; activation: at 154 µM (top of the series), 100% = cAMP control response; further: nearly all actives have a fitted effect of over 75% in size;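 on activation: EPAC1 catalysed release of BODIPY-GDP from Rap1B seen as fluorescence loss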
[3] = target: Rap guanine nucleotide exchange factor 4 (Homo sapiens) (UniProt Q8WZA2); assay: Confirmatory qHTS for agonist of cAMP-regulated guanine nucleotide exchange factor 4 (EPAC2) (AID 1645884); conditions: EPAC2 GEF activity, Rap1B-BODIPY-GDP fluorescence; activation: at 154 µM (top of the series), percent relative to cAMP agonist control;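 further: nucleotide exchange releases bodipy-GDP from Rap1 and this lowers its fluorescence; nearly all actives have a fitted effect of over 65% in size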; on activation: on the % scale 0 is the no-effect control and ±100 the full control effect
Chain of UniProt Q8WZA2 (Q8WZA2 whole entry, looked up): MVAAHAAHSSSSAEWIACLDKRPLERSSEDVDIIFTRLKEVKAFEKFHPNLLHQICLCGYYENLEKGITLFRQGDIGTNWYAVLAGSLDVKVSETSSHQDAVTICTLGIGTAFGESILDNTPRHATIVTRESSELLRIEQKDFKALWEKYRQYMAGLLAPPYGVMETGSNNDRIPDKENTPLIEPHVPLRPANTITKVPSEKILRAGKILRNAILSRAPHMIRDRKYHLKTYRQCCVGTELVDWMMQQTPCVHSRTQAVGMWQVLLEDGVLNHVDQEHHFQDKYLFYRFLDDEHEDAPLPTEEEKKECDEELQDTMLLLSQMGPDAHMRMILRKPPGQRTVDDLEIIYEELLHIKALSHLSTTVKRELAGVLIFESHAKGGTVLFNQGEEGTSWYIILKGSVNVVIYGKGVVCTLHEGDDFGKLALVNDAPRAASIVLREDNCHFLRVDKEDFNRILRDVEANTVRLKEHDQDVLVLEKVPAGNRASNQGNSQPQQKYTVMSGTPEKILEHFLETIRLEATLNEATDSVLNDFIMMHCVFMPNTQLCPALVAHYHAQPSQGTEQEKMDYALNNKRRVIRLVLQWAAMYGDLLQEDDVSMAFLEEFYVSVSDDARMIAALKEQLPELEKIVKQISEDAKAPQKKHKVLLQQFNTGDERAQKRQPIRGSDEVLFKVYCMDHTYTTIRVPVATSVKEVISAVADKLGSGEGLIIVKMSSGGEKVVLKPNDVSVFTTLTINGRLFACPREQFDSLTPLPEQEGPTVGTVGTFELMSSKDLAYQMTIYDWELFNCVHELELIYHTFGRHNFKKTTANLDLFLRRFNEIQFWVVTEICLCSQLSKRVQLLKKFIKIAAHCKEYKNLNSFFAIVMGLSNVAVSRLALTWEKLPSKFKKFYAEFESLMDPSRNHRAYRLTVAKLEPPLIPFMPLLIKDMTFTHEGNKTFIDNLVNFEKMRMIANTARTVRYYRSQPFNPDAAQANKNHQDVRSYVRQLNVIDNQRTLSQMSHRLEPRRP

[4] = target: Rap guanine nucleotide exchange factor 3 (Homo sapiens) (UniProt O95398); assay: Counterscreen qHTS for agonist of cAMP-regulated guanine nucleotide exchange factor 3 (EPAC1) (AID 1645889); conditions: EPAC1 Rap1B-BODIPY-GDP exchange, fluorescence; activation: at 154 µM (top of the series) unless noted; further: nearly all actives have a fitted effect of over 40% in size; on activation: % of control where 0% means no effect
Summary of the method: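 Measured: fluorescence of BODIPY-GDP bound to Rap1B, which falls as exchange proceeds. Conditions include 50 uM competing GDP, 5 and 30 min reads, and a later cAMP challenge for antagonist detection.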

[5] = target: Tumor susceptibility gene 101 protein (Homo sapiens) (UniProt Q99816); assay: qHTS Assay for Iinhibitors of HIV-1 Budding by Blocking the Interaction of PTAP/TSG101: Hit Validation (AID 651600); conditions: PTAP peptide/TSG101 UEV interaction, biochemical assay; further: nearly all actives have a fitted effect of over 70% in size
Chain of UniProt Q99816 (Q99816 whole entry, looked up, the tested form may be a part): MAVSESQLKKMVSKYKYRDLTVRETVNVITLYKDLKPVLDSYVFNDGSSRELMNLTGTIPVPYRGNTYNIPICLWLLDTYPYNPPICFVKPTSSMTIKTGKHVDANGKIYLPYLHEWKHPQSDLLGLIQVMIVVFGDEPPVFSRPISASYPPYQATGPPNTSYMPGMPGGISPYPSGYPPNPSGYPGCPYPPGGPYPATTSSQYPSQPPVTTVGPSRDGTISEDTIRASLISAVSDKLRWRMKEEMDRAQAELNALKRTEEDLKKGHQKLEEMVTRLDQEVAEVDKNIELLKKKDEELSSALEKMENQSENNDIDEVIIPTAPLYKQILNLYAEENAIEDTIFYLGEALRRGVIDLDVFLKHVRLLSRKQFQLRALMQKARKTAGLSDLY
Summary of the method: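 Tsg101 binding domain 10 uM + FITC-PTAP peptide 50 nM (final), 10 mM HEPES pH 7.5/0.15 M NaCl/0.01% Tween 20/3 mM EDTA/0.1 mM TCEP; 20 min RT; FP read, FITC filters.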

[6] = target: Luciferin 4-monooxygenase (Photinus pyralis) (UniProt P08659); assay: qHTS screen for small molecules that inhibit ELG1-dependent DNA repair: Hit Confirmation in Biochemical Luciferin Assay (AID 624253); conditions: purified firefly luciferase, luminescence counter-screen
Excerpt: Cancer cells divide rapidly compared to normal cells in the body. During cell division, cancer cells need to duplicate their genome by DNA replication. The failure of genome duplication leads to cancer cells' death. Therefore, inhibitors of DNA replication could specifically kill cancer cells. Based on this concept, many chemotherapeutic agents were developed and have been used to treat cancer patients. However, there are a limited number of agents available in the clinical setting, and some of those that do exist have low efficacy and severe side effects. Therefore, if we can find the compounds that effectively block DNA replication either by directly damaging DNA or by inhibiting other cellular mechanisms, the options for cancer treatment will be broadened. With this in mind, we developed a quantitative high-throughput ELG1-luciferase reporter gene assay. Small molecules that specifically block ELG1 function in response to DNA damage can be identified by monitoring the suppression of luciferase activity. […]
3 uL of substrate reagent will be pipetted into each well in 1536-well white, solid-bottom plates using a FRD dispenser, followed by addition of 23 nL of DMSO or compounds by pintool. […] The plates will be read in a ViewLux CCD-based plate reader.
Potency means the concentration at half of the fitted maximal effect; tags describe the fitted curve by direction and shape.

Structure (SMILES) | Potency [1] | Potency [2] | Potency [3] | Potency [4] | activation [4] | activation [3] | Potency [5] | Potency [6]
CCN1/C(=C2/SC(=S)N(NC(C)=O)C2=O)Sc2ccc(OC)cc21 | inconclusive [inhibitor, partial curve] | inconclusive [activator, partial curve, poor fit] | inconclusive [activator, partial curve] | inconclusive [activator, full curve, poor fit] | – | – | – | –
COC(=O)c1cc(C(=O)c2ccc(Cl)cc2)n2c(=O)/c(=C\N(C)C)sc12 | inactive | inconclusive [activator, single point] | active: 100 µM | – | inconclusive: 37% [activator] | – | – | –
CCOc1ccc2c(ccc(/C=C/c3cc(C)c4cccnc4c3O)[n+]2C)c1 | active: 60.1 µM | inconclusive [activator, partial curve] | active: 70.8 µM | inconclusive [activator, single point] | – | – | – | –
S=C(Nc1ccc2nsnc2c1)NC1CCCCC1 | inconclusive [inhibitor, partial curve] | inconclusive [activator, partial curve] | inconclusive [activator, partial curve, poor fit] | – | inconclusive: 117% [activator] | – | – | –
COc1ccc(C(C(=O)c2ccccc2)c2ccccc2)cc1 (centres undefined) | inactive | active: 100 µM | active: 50.1 µM | inconclusive [activator, full curve, poor fit] | – | – | – | –
O=c1c2ccccc2c(C=Nc2ccc(O)cc2)c(O)n1Cc1ccccc1 | inconclusive [inhibitor, partial curve] | inactive | – | – | inactive: 1.81% [at 30.8 µM] | inactive: 1.98% [at 17.1 µM, percent relative to cAMP agonist control] | – | –
Nc1ccc(-c2c3ccc(=O)cc-3oc3cc(O)ccc23)c(C(=O)O)c1 | inactive | active: 100 µM | active: 100 µM | active: 31.6 µM | – | – | inconclusive [inhibitor, full curve] | –
O=S(=O)(c1ccccc1)c1nc(Nc2cccc(O)c2)sc1Cl | inconclusive [inhibitor, partial curve, poor fit] | inconclusive [activator, partial curve, poor fit] | inconclusive [activator, partial curve, poor fit] | inconclusive [activator, full curve, poor fit] | – | – | – | –
COc1ccc(C(=O)Nc2cccc(/C=C(/CCC(=O)O)c3nc4ccccc4s3)c2)cc1 | active: 15.1 µM | inactive | inactive | inactive | – | – | – | –
O/N=C(/c1ccc(F)cc1)C1CC1c1c(F)cccc1Cl (centres undefined) | inconclusive [inhibitor, partial curve] | inconclusive [activator, partial curve] | inconclusive [activator, partial curve, poor fit] | inconclusive [activator, partial curve, poor fit] | – | – | – | –
CN(C)c1ccc(-c2cc3ccccc3c(=O)o2)cc1 | inactive | inconclusive [activator, partial curve, poor fit] | inconclusive [activator, partial curve] | inconclusive [activator, partial curve, poor fit] | – | – | – | active: 0.184 µM
C=CCN1C(=O)c2cccc3c(N4CCCCC4)ccc(c23)C1=O | inactive | inconclusive [activator, partial curve, poor fit] | active: 112 µM | inconclusive [activator, full curve, poor fit] | – | – | – | –
CN(C)c1ccc(/C=C2\C(=N)N3N=C(CC(=O)N4CCCCC4)SC3=NC2=O)cc1 | inconclusive [inhibitor, partial curve] | inactive | inconclusive [activator, single point] | inactive | – | – | – | –
N#C/C(=C\c1ccc(Sc2ccccc2)o1)c1nc2ccccc2[nH]1 | inconclusive [inhibitor, partial curve, poor fit] | inconclusive [activator, partial curve, poor fit] | active: 112 µM | inconclusive [activator, partial curve, poor fit] | – | – | – | –
Nc1ccc2c3c(cccc13)-c1ccccc1-2 | inactive | active: 100 µM | active: 100 µM | inconclusive [activator, single point] | – | – | – | –
Cc1ccccc1-n1c(O)c(/C=C/C=Nc2ccccc2)c(=O)[nH]c1=O | inactive | inconclusive [activator, partial curve, poor fit] | active: 112 µM | active: 39.8 µM | – | – | – | –
O=C1/C(=C\c2cccc(O)c2O)SC(=S)N1Cc1ccccc1 | active: 75.7 µM | inactive | inconclusive [activator, partial curve, poor fit] | – | inconclusive: 39% [activator] | – | – | –
Cc1cc2ccccn2c1C(=O)c1ccccc1Br | inconclusive [inhibitor, partial curve] | inconclusive [activator, partial curve, poor fit] | inconclusive [activator, partial curve, poor fit] | active: 25.1 µM | – | – | – | –

From PubChem BioAssay (NCATS)
